Data: US20240408177A1 (ELLXIRON IMMUNOTHERAPEUTICS HONG KONG, published 2024)
Positions count from the first letter of the chain named. Numbers in names are those of the source. Blank lines part the entries; values can stand above or below the binder they belong to.

Target: T1, Recombinant Human IL-10Rα (R&D systems 9100-R1) (human, UniProt Q13651 22-235)
T1 construct: Coated on the ELISA plate at 0.8 µg/ml
T1 sequence (looked up): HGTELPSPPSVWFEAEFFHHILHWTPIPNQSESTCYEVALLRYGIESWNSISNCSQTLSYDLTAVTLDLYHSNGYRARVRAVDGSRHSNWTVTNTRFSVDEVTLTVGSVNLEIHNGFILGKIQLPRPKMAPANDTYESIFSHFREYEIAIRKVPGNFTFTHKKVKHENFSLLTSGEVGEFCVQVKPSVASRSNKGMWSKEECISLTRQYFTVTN
Experiment: ELISA, coated receptor (told again with the CD8+ T cell assay)
Method: To further characterize IL10-Fc fusion comprising IL10 variants, all fusion proteins were further purified by gel filtration chromatography on a Superdex 200 Increase 10/300 GL column (GE Healthcare) with 1×PBS to remove aggregates. For the binding test, the IL10 (WT)-Fc or muteins were serial diluted with 1×PBS, then 100 μl were added to each well coated with 0.8 μg/ml Recombinant Human IL-10Rα (R&D systems 9100-R1) or 0.1 μg/ml Recombinant Human IL-10Rβ (Sinobiological 10945-H08H). The plate was incubated at 37° C. for 1.5 hours and unbound IL10-Fc were washed away with 1× PBST for three times. Addition of HRP-conjugated anti-human Fc antibody and incubated at 37° C. for one hour. Washed away excess detection antibody and added 3,3′,5,5′-tetramethylbenzidine to each well. After incubation, add equal volume of stopping solution (2M H₂SO₄) and read absorbance at 450/650 nm. […] We also used the IL-10Rα binding ELISA to investigate the of freeze-thaw stability of IL10 (R104Q)-Fc. IL10-Fc fusion protein in PBS was freeze-thawed five times. The cycles consisted of placing samples at −70° C. more than 24 hours. The next day, the sample were thawed at room temperature for at least 1 hour. […] In contrast, the binding of IL10 (R104Q)-Fc to human IL-10Rα was not changed after five freeze-thawing treatment.

B2: IL10 (R107E)-Fc (Fc fusion)
chain: SPGQGTQSENSCTHFPGNLPNMLRDLRDAFSRVKTFFQMKDQLDNLLLKESLLEDFKGYLGCQALSEMIQFYLEEVMPQAENQDPDIKAHVNSLGENLKTLRLRLRECHRFLPCENKSKAVEQVKNAFNKLQEKGIYKAMSEFDIFINYIEAYMTMKIRNGGGGSGGGGSGGGG[human IgG1 Fc not written out]
binding result: binds

B4: IL10 (R107Q)-Fc (Fc fusion)
chain: B2 chain with E107Q
binding result: binds

Second part, the binder after the results:

binding result: binds
B1: IL10 (R104Q)-Fc (Fc fusion)
chain: B2 chain with R104Q, E107R

binding result: binds
B3: IL10 (R107A)-Fc (Fc fusion)
chain: B2 chain with E107A
